In all, about 33,000 sequences were measured (“E-score (-0.5 to 0.5)”: median about -0.056, highest 2% from about 0.38 on). Some of the results follow.
The sequences below were run against Stb4 (UniProt P50104) (assay: PBM E-score (8-mer binding enrichment) (E-score (-0.5 to 0.5)); higher = stronger / more preferred TF binding; most listed sequences are background and not binding sites). Details: protein concentration: 200 nM; construct: GST-DNA-binding domain.
In short: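 For each ungapped eight-base word taken together with its reverse complement, the Universal PBM Analysis Suite assigned an E-score. Binding data came from GST-tagged yeast transcription factors, applied at about 100-200 nM, on universal all-10-mer Agilent arrays made double-stranded by primer extension. Fluorescent anti-GST marked bound protein, and scans were normalised with masliner.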

Sequence	PBM E-score
CTCGCCGA	0.271
TACTACCA	-0.107
CAAAGATA	-0.111
CGTCCAGA	-0.113
GCATATCC	0.101
CCGGACAC	0.193
ATCTTGCA	-0.048
GAAGCACC	-0.0377
CCGTGCAG	0.117
GACTACTC	0.0421
AGATACTG	-0.169
ACTCTCAC	-0.168
CATAATAA	-0.101
AATTGCGT	0.153
AATATTGC	0.166
CCTGAATA	-0.107
CACACAGC	-0.102
AGCGCTCA	-0.191
CCTTGTCA	-0.291
AAATGTGA	-0.175
AATGACGA	-0.113
GAACGCGA	-0.0119
CGAATTCG	0.203
ATATGTAC	-0.0125
CGCGCACC	-0.0167

Sequence	PBM E-score
AGAGCAGA	-0.159
ACCGTATA	-0.145
CAGAGGCA	-0.134
AGACGGAT	0.29
AAGCCGCT	-0.00212
ATAGAAAA	-0.156
GTAATTAA	-0.0124
CTAACGTA	-0.201
GGTATCTA	0.129
AGAGTGAC	-0.115
TCATATGA	0.0352
ACGCTCTC	-0.119
GATATAAA	-0.00092
GATTATGC	0.253
ACGGCAAC	0.204
AAGAACCT	-0.0619
CCCGAGCG	0.43
CCTAATGA	-0.159
CTATGTCA	-0.177
ACTATTGG	-0.123
CGTTGAGA	-0.133
AGGCTTTC	-0.123
ACAACTTG	-0.261
ACCCTTGC	-0.114
ACACCACA	-0.0857

Sequence	PBM E-score
CAGGTCAG	0.00829
GCAGGTCA	-0.0711
AACCGGGT	0.339
ACACAGAA	-0.117
GGAAACGA	0.0279
AAGCAGCC	0.0101
AGAATTAA	-0.00134
TCCGCCGA	0.403
AATGCCAT	-0.0911
AACCGGTT	0.305
AACAGAAC	-0.138
CACCTTAC	-0.213
TAGAAGGA	-0.136
AGGCTCTG	-0.392
ACACATGA	-0.315
ATAGCGTG	-0.0897
ATTGATTC	0.126
AGGATAGC	0.206
TCAACTGA	-0.12
AAATGGTG	-0.00049
ACCGTCTG	-0.153
TATCCAGA	-0.00856
CCGGGCCG	0.382
ACTGTATC	-0.198
AACGCACC	-0.0468

Sequence	PBM E-score
ATACAGTC	-0.205
GGAAATAA	0.226
AAAAGGGG	-0.145
ATCTTCGC	0.016
ATGGAATG	0.193
TCGTAGAA	-0.165
ATAGGTGC	-0.156
CCCCGGCA	0.18
CATTACAG	-0.281
AGGCATAG	-0.118
CGAGATAA	0.148
CGGGTTAA	0.342
CGCCATCA	-0.149
GGGGTGTA	-0.0246
AGCACCTA	-0.196
CATGACGG	0.018
AGCACAAG	-0.176
CGCGCCCG	0.215
ACGCTCAA	-0.263
AAGCCTGT	-0.0187
CGCCGCAC	-0.00742
CGACTGTC	-0.134
CGCAAATC	0.0403
CTGCCACA	-0.128
GTTACCTA	-0.218

Sequence	PBM E-score
CAGGCTAA	-0.169
CGAAAACA	0.123
AGATCCGA	0.477
ATTTCCGC	0.307
CGAGAGCA	0.173
AACCGGTC	0.178
CTTGAAAA	-0.128
AATTTCCC	0.142
AGACCGGA	0.238
ATCCCCTA	-0.0794
ACGAGATG	-0.03
GCTCTCTA	-0.162
GCGTAAAA	0.0254
ATGCGATG	-0.125
CGTTGAAA	-0.0522
CTTTTAGC	-0.184
TCACCAAA	-0.199
CCACTGAA	-0.0394
CATTAGCC	0.0405
AGCCGACC	0.293
GCGAGCAA	-0.172
CTCTAAAC	-0.139
AACTCTAA	0.0717
GGATGATA	0.0749
CTGGCCAG	-0.213

Sequence	PBM E-score
CGGCAGAG	0.165
AAGTCATG	0.0257
ACACATTC	0.0594
CACTGAGA	-0.289
AAATGAGA	-0.234
AGAGGGAA	-0.182
CCGCAACC	0.225
AATCGTTG	-0.121
ATCCCGAA	0.432
TAAATTGA	-0.112
AGAGCATG	-0.348
AATGTTCT	-0.276
CTACTAAG	-0.0404
GTAGTCTA	-0.131
CGGTACTA	0.228
TGCATACA	0.0395
GCGGACGA	0.182
ACCTGAAG	-0.127
AGCGCGTA	-0.123
AAATAGGT	-0.163
AGTAAACT	0.0611
GAAAGCTA	0.0825
AGGGGTAG	0.019
AGACAGTA	-0.0155
GATTTTCA	0.179

Sequence	PBM E-score
AACGTCTG	-0.0132
AATATCAT	-0.053
TCCACAAA	0.0358
ACTCAACT	0.0475
AATCCTAA	-0.168
AAGCCACT	-0.215
ACCCCTCC	0.0757
ACGAGACT	-0.188
CTAGCAAA	-0.0447
AAGGAGAT	-0.151
CCGCAGGC	0.104
CATTCGAC	0.0379
ACCCTACA	-0.0695
AAGCAGAA	-0.0753
AATTGGGC	-0.186
CCTAGTGC	-0.211
CTACGGCC	-0.0222
TGAATGCA	-0.145
CGTTCCCC	-0.014
CCGGAATC	0.38
CGGGGCAC	0.0761
ACGATTTA	-0.0313
GGAATCCA	0.0473
GGTAACGA	0.0242
ACGTATGA	-0.0216

Sequence	PBM E-score
AGGAAGGG	-0.186
ACTGTAGC	-0.197
AAAAAAAA	0.13
CTCTAGCA	-0.322
AATCTTGG	-0.197
CGGCCGTA	0.167
CCGCCAGG	-0.144
CAGTGAGC	-0.174
TCCTCCCA	-0.00836
CACCCACA	-0.15
CCACGGGA	0.223
GATTATCC	0.23
AGGTACAC	-0.0592
TAGACCCA	-0.174
CGCCCCCA	-0.155
GGAGCCAA	0.0271
GCCGGGGA	0.211
AACGCGGA	0.321
GCTACTAA	-0.116
ATAGCATA	-0.109
ATTAGGGG	-0.0642
AGGGGTTG	-0.217
ATGGTACA	-0.159
GAAGAAGC	-0.0404
TGCGACAA	-0.0541

Sequence	PBM E-score
ACCCGAAC	0.463
CTCTCCCC	0.0536
CGTCACGA	-0.0927
AGGCACTC	-0.0316
GCTTTTCA	-0.0237
CGGCTACA	0.269
AATAGATA	-0.03
AATGTTGT	-0.175
CTCGCGAG	-0.0385
GTCACGTA	-0.151
CGGTCCCA	0.107
CCGGCGAA	0.228
AGTAAGTA	-0.0589
ACCCTGTC	-0.0532
AATCCGGG	0.306
CACGCCGA	0.261
CTCTCTAC	-0.221
CCGACACG	0.297
ATGGGTGA	-0.0632
GTTCCACA	-0.00185
CGGTCGCA	-0.0174
GGGCACCA	-0.0509
ACTGGTTC	0.0823
CCGCTGCG	0.0615
ACTATTAT	0.113

Sequence	PBM E-score
GGAGCCAC	-0.0691
ATGGTCTC	0.0617
ATCGAGCA	-0.00212
CAAATGGG	-0.329
CGCAGGCA	-0.169
CCAACCAG	-0.0913
ATACGTAA	-0.17
AGCTCGAT	-0.0276
GATCTGGA	-0.036
GAAGCTAA	-0.00411
CTGTAAAA	-0.054
GCTACTCC	0.0762
ACAGTATA	-0.146
AAAAAATA	0.173
AGTTCTCA	-0.0891
TATACCAA	0.0776
CGGCGAAG	0.119
GTATTGAA	-0.0765
TCTGGCAA	-0.0461
GCTATCAA	0.0638
CGCGCGTA	0.0546
TGTCTCAA	-0.118
GTCTACCA	-0.162
AACAAATC	0.0948
AGGTTATG	-0.0172

Sequence	PBM E-score
GGCATGAA	0.0361
AATGTAAT	0.134
AGAACGCC	0.0271
CCGCGTCC	0.199
AATGCAAA	0.0144
GATTAACC	0.149
GGCATCTA	-0.0394
GGACGTCA	-0.116
ACAAACTA	-0.0819
ATTCTTAG	-0.249
ACACCCTG	-0.146
CCCCCGTC	-0.0446
AATTCTCG	0.149
AAATGGTA	-0.0634
CTTGATCC	0.173
AAAATGCC	-0.0192
CCTTAGAA	-0.251
GTTCACAA	-0.0259
ATTGACAC	-0.16
GCTCGCCC	-0.0865
AAATCTGC	-0.227
ACTGATAC	0.0597
CGGAAGGA	0.397
ATGGTTCA	-0.0571
GATAACTA	-0.0332

Sequence	PBM E-score
CTAGCATA	-0.0583
AACCCGTA	0.0725
AAGGAGTC	-0.12
CTGAGCGC	-0.234
CGTCCGGC	0.253
CCGGTTCA	0.151
AAACCGGT	0.16
GCGGTCCA	-0.104
GAGGTCAA	-0.0297
ATCCAACC	-0.0333
GAAGAGGC	-0.016
AGCGTAGG	-0.0217
GCTGAGAC	-0.0112
GATGCAAA	-0.106
CGAGCTAA	0.184
AGGCCTAT	-0.218
GCTAATGA	-0.129
AACATCCT	-0.0622
GCTGGAGA	-0.269
GGCGTGAC	-0.156
GATGCCGA	0.411
ACACTTGC	-0.118
GTATAACA	-0.139
AGACGGCT	0.125
GCCGGGTA	0.353

Sequence	PBM E-score
ATACTCAG	-0.0187
CCATGATA	-0.0894
AGAGACCT	-0.212
GTGCACCA	-0.103
ACATAAGC	-0.126
CATCTAGA	-0.117
ACTTTTAG	-0.087
TGTTAACA	-0.21
GATTCGGA	0.43
ACGTGTCG	-0.0915
GCTAGGAC	-0.0447
TCCCTCAA	-0.018
GGATATAA	0.214
CCTACCCA	-0.208
CATTGGCC	-0.132
ATGGTCGC	-0.0565
ACACAGCC	0.0836
GCTGCGAA	-0.0917
CGACACAA	-0.126
AGATCACT	0.0171
GGTTCTTA	0.0492
TACGTCTA	-0.241
CAGATAGC	-0.0171
GGCCGGGA	0.289
AATCACAT	0.0658

Sequence	PBM E-score
AAGTACTT	-0.0255
AGGTCGTC	-0.0455
ACACACAT	-0.0582
GACTCTCA	-0.136
GCCTCGGA	0.444
CAGTTGAG	-0.309
TTCCAGAA	-0.0529
CTTACCCA	-0.113
AGGATCAG	-0.233
GAGATACA	0.0353
CTGCAATA	-0.0207
ACTTCAGC	-0.187
GATAGGAA	-0.0175
GGATTACC	0.208
TGTGACAA	-0.151
AAGCGTGG	-0.0265
AGAACGCT	-0.244
AAGAAATT	0.151
GACCTACA	-0.127
